# From article PMC12820563, “FoxP3 forms a head-to-head dimer in vivo and stabilizes its multimerization on adjacent microsatellites”
# Some of the results follow.
# Biological target: T1, MBP-FoxP1dN (Mus musculus, UniProt P58462 326-579)
# T1 sequence: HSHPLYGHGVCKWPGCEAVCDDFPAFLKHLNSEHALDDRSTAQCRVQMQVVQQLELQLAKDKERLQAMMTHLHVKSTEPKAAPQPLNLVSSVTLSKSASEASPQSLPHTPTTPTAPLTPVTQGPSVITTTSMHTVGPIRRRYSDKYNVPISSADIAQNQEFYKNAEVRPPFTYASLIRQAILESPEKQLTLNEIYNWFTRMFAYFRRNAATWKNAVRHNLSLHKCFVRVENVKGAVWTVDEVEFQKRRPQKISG
# Assay: PD-seq (MBP pull-down with sequencing); 20 mM Tris-HCl pH 7.5, 100 mM NaCl, 1.5 mM MgCl2, 0.4 uM protein, 0.1 uM dsDNA library, 30 min, room temperature, amylose pull-down; high values mean tight binding
# Conditions: protein: recombinant; tags: His6-MBP; chain copies: 2; dsDNA, one strand shown
# In short: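 Binding is reads-per-million enrichment of pull-down over input, with replicates pooled. It comes from 30 min room-temperature incubation in Tris pH 7.5 buffer with NaCl and MgCl2 of 0.4 µM His6-MBP-tagged, N-terminally truncated mouse FoxP3 or FoxP1 fragment from E. coli with 0.1 µM Klenow-filled degenerate double-stranded DNA library, followed by amylose resin capture, three washes and Illumina sequencing of the released DNA.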
row,Sequence,binding signal
1,GATGATTGTTCTCCCAGCTGATGAATTGTGACCTTCGAGTAAACAAATTTTCCTAATCTTTCTGTTCAAGCGCCATCTAC,1.17 RPM ratio (pull-down/input)
2,GATGATTGTTCTCCCAGCTGATGAATTCGAGGCATCGAGTAAACAAATTTTCCTAATCTTTCTGTTCAAGCGCCATCTAC,0.964 RPM ratio (pull-down/input)
3,GATGATTGTTCTCCCAGCTGATGAATTTAGGACCTCGAGTAAACAAATTTTCCTAATCTTTCTGTTCAAGCGCCATCTAC,0.817 RPM ratio (pull-down/input)
4,GATGATTGTTCTCCCAGCTGATGAATTAACATTCTCGAGTAAACAAATTTTCCTAATCTTTCTGTTCAAGCGCCATCTAC,0.945 RPM ratio (pull-down/input)
5,GATGATTGTTCTCCCAGCTGATGAATTGCAATCCTCGAGTAAACAAATTTTCCTAATCTTTCTGTTCAAGCGCCATCTAC,1.2 RPM ratio (pull-down/input)
6,GATGATTGTTCTCCCAGCTGATGAATTTACTCAGTCGAGTAAACAAATTTTCCTAATCTTTCTGTTCAAGCGCCATCTAC,1.14 RPM ratio (pull-down/input)
7,GATGATTGTTCTCCCAGCTGATGAATTTCATATTTCGAGTAAACAAATTTTCCTAATCTTTCTGTTCAAGCGCCATCTAC,0.996 RPM ratio (pull-down/input)
8,GATGATTGTTCTCCCAGCTGATGAATTATCTAGTTCGAGTAAACAAATTTTCCTAATCTTTCTGTTCAAGCGCCATCTAC,1.02 RPM ratio (pull-down/input)
9,GATGATTGTTCTCCCAGCTGATGAATTAGGGTTGTCGAGTAAACAAATTTTCCTAATCTTTCTGTTCAAGCGCCATCTAC,1.03 RPM ratio (pull-down/input)
10,GATGATTGTTCTCCCAGCTGATGAATTCAATCGTTCGAGTAAACAAATTTTCCTAATCTTTCTGTTCAAGCGCCATCTAC,0.98 RPM ratio (pull-down/input)
11,GATGATTGTTCTCCCAGCTGATGAATTATGAACCTCGAGTAAACAAATTTTCCTAATCTTTCTGTTCAAGCGCCATCTAC,0.86 RPM ratio (pull-down/input)
12,GATGATTGTTCTCCCAGCTGATGAATTAATATTATCGAGTAAACAAATTTTCCTAATCTTTCTGTTCAAGCGCCATCTAC,1.5 RPM ratio (pull-down/input)
13,GATGATTGTTCTCCCAGCTGATGAATTTACTAAATCGAGTAAACAAATTTTCCTAATCTTTCTGTTCAAGCGCCATCTAC,1.72 RPM ratio (pull-down/input)
14,GATGATTGTTCTCCCAGCTGATGAATTGTTCGCGTCGAGTAAACAAATTTTCCTAATCTTTCTGTTCAAGCGCCATCTAC,1.08 RPM ratio (pull-down/input)
15,GATGATTGTTCTCCCAGCTGATGAATTTAGCTGCTCGAGTAAACAAATTTTCCTAATCTTTCTGTTCAAGCGCCATCTAC,0.974 RPM ratio (pull-down/input)
16,GATGATTGTTCTCCCAGCTGATGAATTCCGGGTCTCGAGTAAACAAATTTTCCTAATCTTTCTGTTCAAGCGCCATCTAC,0.675 RPM ratio (pull-down/input)
17,GATGATTGTTCTCCCAGCTGATGAATTATAATACTCGAGTAAACAAATTTTCCTAATCTTTCTGTTCAAGCGCCATCTAC,1.11 RPM ratio (pull-down/input)
18,GATGATTGTTCTCCCAGCTGATGAATTGAAGGTTTCGAGTAAACAAATTTTCCTAATCTTTCTGTTCAAGCGCCATCTAC,0.835 RPM ratio (pull-down/input)
19,GATGATTGTTCTCCCAGCTGATGAATTATAGATCTCGAGTAAACAAATTTTCCTAATCTTTCTGTTCAAGCGCCATCTAC,0.835 RPM ratio (pull-down/input)
20,GATGATTGTTCTCCCAGCTGATGAATTTGCAGCCTCGAGTAAACAAATTTTCCTAATCTTTCTGTTCAAGCGCCATCTAC,0.906 RPM ratio (pull-down/input)

row,Sequence,binding signal
1,GATGATTGTTCTCCCAGCTGATGAATTGTAAAATTCGAGTAAACAAATTTTCCTAATCTTTCTGTTCAAGCGCCATCTAC,0.958 RPM ratio (pull-down/input)
2,GATGATTGTTCTCCCAGCTGATGAATTAAGAAGATCGAGTAAACAAATTTTCCTAATCTTTCTGTTCAAGCGCCATCTAC,0.906 RPM ratio (pull-down/input)
3,GATGATTGTTCTCCCAGCTGATGAATTCTCAGCATCGAGTAAACAAATTTTCCTAATCTTTCTGTTCAAGCGCCATCTAC,1.04 RPM ratio (pull-down/input)
4,GATGATTGTTCTCCCAGCTGATGAATTGCGCGCTTCGAGTAAACAAATTTTCCTAATCTTTCTGTTCAAGCGCCATCTAC,1.06 RPM ratio (pull-down/input)
5,GATGATTGTTCTCCCAGCTGATGAATTGACGCGCTCGAGTAAACAAATTTTCCTAATCTTTCTGTTCAAGCGCCATCTAC,1.04 RPM ratio (pull-down/input)
6,GATGATTGTTCTCCCAGCTGATGAATTCAGAGATTCGAGTAAACAAATTTTCCTAATCTTTCTGTTCAAGCGCCATCTAC,0.864 RPM ratio (pull-down/input)
7,GATGATTGTTCTCCCAGCTGATGAATTGGGAGCGTCGAGTAAACAAATTTTCCTAATCTTTCTGTTCAAGCGCCATCTAC,0.9 RPM ratio (pull-down/input)
8,GATGATTGTTCTCCCAGCTGATGAATTGTAATTGTCGAGTAAACAAATTTTCCTAATCTTTCTGTTCAAGCGCCATCTAC,1.39 RPM ratio (pull-down/input)
9,GATGATTGTTCTCCCAGCTGATGAATTCTGTCCGTCGAGTAAACAAATTTTCCTAATCTTTCTGTTCAAGCGCCATCTAC,0.824 RPM ratio (pull-down/input)
10,GATGATTGTTCTCCCAGCTGATGAATTTCATGCTTCGAGTAAACAAATTTTCCTAATCTTTCTGTTCAAGCGCCATCTAC,0.882 RPM ratio (pull-down/input)
11,GATGATTGTTCTCCCAGCTGATGAATTCAGACACTCGAGTAAACAAATTTTCCTAATCTTTCTGTTCAAGCGCCATCTAC,0.817 RPM ratio (pull-down/input)
12,GATGATTGTTCTCCCAGCTGATGAATTGTTCCTCTCGAGTAAACAAATTTTCCTAATCTTTCTGTTCAAGCGCCATCTAC,1.09 RPM ratio (pull-down/input)
13,GATGATTGTTCTCCCAGCTGATGAATTAGCCATCTCGAGTAAACAAATTTTCCTAATCTTTCTGTTCAAGCGCCATCTAC,0.909 RPM ratio (pull-down/input)
14,GATGATTGTTCTCCCAGCTGATGAATTCCAGTAATCGAGTAAACAAATTTTCCTAATCTTTCTGTTCAAGCGCCATCTAC,1.31 RPM ratio (pull-down/input)
15,GATGATTGTTCTCCCAGCTGATGAATTTCATTCATCGAGTAAACAAATTTTCCTAATCTTTCTGTTCAAGCGCCATCTAC,0.872 RPM ratio (pull-down/input)
16,GATGATTGTTCTCCCAGCTGATGAATTATCCGGTTCGAGTAAACAAATTTTCCTAATCTTTCTGTTCAAGCGCCATCTAC,0.926 RPM ratio (pull-down/input)
17,GATGATTGTTCTCCCAGCTGATGAATTTCCCTCCTCGAGTAAACAAATTTTCCTAATCTTTCTGTTCAAGCGCCATCTAC,0.8 RPM ratio (pull-down/input)
18,GATGATTGTTCTCCCAGCTGATGAATTCAGCTCATCGAGTAAACAAATTTTCCTAATCTTTCTGTTCAAGCGCCATCTAC,0.865 RPM ratio (pull-down/input)
19,GATGATTGTTCTCCCAGCTGATGAATTGCGAGCTTCGAGTAAACAAATTTTCCTAATCTTTCTGTTCAAGCGCCATCTAC,0.97 RPM ratio (pull-down/input)
20,GATGATTGTTCTCCCAGCTGATGAATTTGAAAAGTCGAGTAAACAAATTTTCCTAATCTTTCTGTTCAAGCGCCATCTAC,0.847 RPM ratio (pull-down/input)
